Some of the results follow. The list includes weakly bound sequences.

For the assay, the target named is T1, MBP-FoxP3dN (UniProt Q99JB6).
T1 sequence: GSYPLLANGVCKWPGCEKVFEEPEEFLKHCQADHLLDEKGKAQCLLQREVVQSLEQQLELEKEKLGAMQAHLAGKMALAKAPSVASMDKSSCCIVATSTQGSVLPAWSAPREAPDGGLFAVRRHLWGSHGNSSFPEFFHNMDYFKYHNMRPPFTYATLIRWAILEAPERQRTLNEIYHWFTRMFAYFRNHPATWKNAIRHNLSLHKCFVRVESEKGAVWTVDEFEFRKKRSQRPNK
The experiment in a line: PD-seq (MBP pull-down with sequencing). The settings on record: 20 mM Tris-HCl pH 7.5, 100 mM NaCl, 1.5 mM MgCl2, 0.4 uM protein, 0.1 uM dsDNA library, 30 min, room temperature, amylose pull-down; high values mean tight binding; double strand, one strand shown.
For “GATGATTGTTCTCCCAGCTGATGAATTAATATGTTCGAGTAAACAAATTTTCCTAATCTTTCTGTTCAAGCGCCATCTAC”, the binding signal (RPM ratio (pull-down/input)) was determined as 1.2.
Consider “GATGATTGTTCTCCCAGCTGATGAATTCGTGAGGTCGAGTAAACAAATTTTCCTAATCTTTCTGTTCAAGCGCCATCTAC”, for which the binding signal (RPM ratio (pull-down/input)) came to 0.398.
With “GATGATTGTTCTCCCAGCTGATGAATTCAGTCGGTCGAGTAAACAAATTTTCCTAATCTTTCTGTTCAAGCGCCATCTAC” the figure was 0.268; with “GATGATTGTTCTCCCAGCTGATGAATTTGCTGTGTCGAGTAAACAAATTTTCCTAATCTTTCTGTTCAAGCGCCATCTAC”, 6.29.
With “GATGATTGTTCTCCCAGCTGATGAATTACAACTATCGAGTAAACAAATTTTCCTAATCTTTCTGTTCAAGCGCCATCTAC” the figure was 0.938; with “GATGATTGTTCTCCCAGCTGATGAATTAGTTCAATCGAGTAAACAAATTTTCCTAATCTTTCTGTTCAAGCGCCATCTAC”, 0.307.
For “GATGATTGTTCTCCCAGCTGATGAATTCATCCAATCGAGTAAACAAATTTTCCTAATCTTTCTGTTCAAGCGCCATCTAC” the value was 0.318; for “GATGATTGTTCTCCCAGCTGATGAATTGAAGCGCTCGAGTAAACAAATTTTCCTAATCTTTCTGTTCAAGCGCCATCTAC”, 0.396; for “GATGATTGTTCTCCCAGCTGATGAATTTCGGAGTTCGAGTAAACAAATTTTCCTAATCTTTCTGTTCAAGCGCCATCTAC”, 0.395.
Take “GATGATTGTTCTCCCAGCTGATGAATTCCGTAACTCGAGTAAACAAATTTTCCTAATCTTTCTGTTCAAGCGCCATCTAC”: the binding signal (RPM ratio (pull-down/input)) was 1.77.
For the sequence “GATGATTGTTCTCCCAGCTGATGAATTCTCGATATCGAGTAAACAAATTTTCCTAATCTTTCTGTTCAAGCGCCATCTAC”, the binding signal (RPM ratio (pull-down/input)) amounted to 0.375.
With “GATGATTGTTCTCCCAGCTGATGAATTCAGGAGATCGAGTAAACAAATTTTCCTAATCTTTCTGTTCAAGCGCCATCTAC”, the binding signal (RPM ratio (pull-down/input)) was determined as 0.192.
With “GATGATTGTTCTCCCAGCTGATGAATTGAGCTACTCGAGTAAACAAATTTTCCTAATCTTTCTGTTCAAGCGCCATCTAC” the figure was 1.32.
For “GATGATTGTTCTCCCAGCTGATGAATTCCCTGCGTCGAGTAAACAAATTTTCCTAATCTTTCTGTTCAAGCGCCATCTAC” the value was 0.401.
In the case of “GATGATTGTTCTCCCAGCTGATGAATTGAGCTTCTCGAGTAAACAAATTTTCCTAATCTTTCTGTTCAAGCGCCATCTAC”, the binding signal (RPM ratio (pull-down/input)) stood at 1.72.
On to “GATGATTGTTCTCCCAGCTGATGAATTGGTTATTTCGAGTAAACAAATTTTCCTAATCTTTCTGTTCAAGCGCCATCTAC”, for which the binding signal (RPM ratio (pull-down/input)) stood at 3.1.
In the case of “GATGATTGTTCTCCCAGCTGATGAATTTATTTGGTCGAGTAAACAAATTTTCCTAATCTTTCTGTTCAAGCGCCATCTAC”, the binding signal (RPM ratio (pull-down/input)) came to 6.15.
With “GATGATTGTTCTCCCAGCTGATGAATTGACAGCATCGAGTAAACAAATTTTCCTAATCTTTCTGTTCAAGCGCCATCTAC” the figure was 1.05; with “GATGATTGTTCTCCCAGCTGATGAATTTAGGCCGTCGAGTAAACAAATTTTCCTAATCTTTCTGTTCAAGCGCCATCTAC”, 0.672.
As for “GATGATTGTTCTCCCAGCTGATGAATTCGAGGAGTCGAGTAAACAAATTTTCCTAATCTTTCTGTTCAAGCGCCATCTAC”, the binding signal (RPM ratio (pull-down/input)) is 0.252.
“GATGATTGTTCTCCCAGCTGATGAATTATCAAGTTCGAGTAAACAAATTTTCCTAATCTTTCTGTTCAAGCGCCATCTAC”: the binding signal (RPM ratio (pull-down/input)) is 0.288.
For “GATGATTGTTCTCCCAGCTGATGAATTACAAAATTCGAGTAAACAAATTTTCCTAATCTTTCTGTTCAAGCGCCATCTAC”, the binding signal (RPM ratio (pull-down/input)) came to 0.333.
For “GATGATTGTTCTCCCAGCTGATGAATTGTACAGGTCGAGTAAACAAATTTTCCTAATCTTTCTGTTCAAGCGCCATCTAC”, the binding signal (RPM ratio (pull-down/input)) turned out to be 0.324.
With “GATGATTGTTCTCCCAGCTGATGAATTACGCTTTTCGAGTAAACAAATTTTCCTAATCTTTCTGTTCAAGCGCCATCTAC” the figure was 2.9.
With “GATGATTGTTCTCCCAGCTGATGAATTCTTCTGCTCGAGTAAACAAATTTTCCTAATCTTTCTGTTCAAGCGCCATCTAC” the figure was 0.236; with “GATGATTGTTCTCCCAGCTGATGAATTTAAGCCCTCGAGTAAACAAATTTTCCTAATCTTTCTGTTCAAGCGCCATCTAC”, 0.401.
For “GATGATTGTTCTCCCAGCTGATGAATTACTACTATCGAGTAAACAAATTTTCCTAATCTTTCTGTTCAAGCGCCATCTAC” the value was 0.607.
With “GATGATTGTTCTCCCAGCTGATGAATTTCGTCCATCGAGTAAACAAATTTTCCTAATCTTTCTGTTCAAGCGCCATCTAC”, the binding signal (RPM ratio (pull-down/input)) amounted to 0.488.
On to “GATGATTGTTCTCCCAGCTGATGAATTACCGGTCTCGAGTAAACAAATTTTCCTAATCTTTCTGTTCAAGCGCCATCTAC”, for which the binding signal (RPM ratio (pull-down/input)) is 0.339.
“GATGATTGTTCTCCCAGCTGATGAATTAACTTTTTCGAGTAAACAAATTTTCCTAATCTTTCTGTTCAAGCGCCATCTAC”: the binding signal (RPM ratio (pull-down/input)) is 0.293.
For “GATGATTGTTCTCCCAGCTGATGAATTCCGCCCCTCGAGTAAACAAATTTTCCTAATCTTTCTGTTCAAGCGCCATCTAC” the value was 2.18.
With “GATGATTGTTCTCCCAGCTGATGAATTCAGTCGCTCGAGTAAACAAATTTTCCTAATCTTTCTGTTCAAGCGCCATCTAC” the figure was 0.396; with “GATGATTGTTCTCCCAGCTGATGAATTAAAATGCTCGAGTAAACAAATTTTCCTAATCTTTCTGTTCAAGCGCCATCTAC”, 0.748; with “GATGATTGTTCTCCCAGCTGATGAATTCCGCCAGTCGAGTAAACAAATTTTCCTAATCTTTCTGTTCAAGCGCCATCTAC”, 2.79.
Consider “GATGATTGTTCTCCCAGCTGATGAATTGTAAAGCTCGAGTAAACAAATTTTCCTAATCTTTCTGTTCAAGCGCCATCTAC”, for which the binding signal (RPM ratio (pull-down/input)) worked out at 0.309.
Turning to “GATGATTGTTCTCCCAGCTGATGAATTTGTAGGGTCGAGTAAACAAATTTTCCTAATCTTTCTGTTCAAGCGCCATCTAC”, the binding signal (RPM ratio (pull-down/input)) is 4.93.
With “GATGATTGTTCTCCCAGCTGATGAATTAGTGCGTTCGAGTAAACAAATTTTCCTAATCTTTCTGTTCAAGCGCCATCTAC” the figure was 2.37; with “GATGATTGTTCTCCCAGCTGATGAATTTTTCCTTTCGAGTAAACAAATTTTCCTAATCTTTCTGTTCAAGCGCCATCTAC”, 0.189; with “GATGATTGTTCTCCCAGCTGATGAATTCATGATATCGAGTAAACAAATTTTCCTAATCTTTCTGTTCAAGCGCCATCTAC”, 0.552.
As for “GATGATTGTTCTCCCAGCTGATGAATTTTCGCTCTCGAGTAAACAAATTTTCCTAATCTTTCTGTTCAAGCGCCATCTAC”, the binding signal (RPM ratio (pull-down/input)) is 0.351.
Turning to “GATGATTGTTCTCCCAGCTGATGAATTTAGTATGTCGAGTAAACAAATTTTCCTAATCTTTCTGTTCAAGCGCCATCTAC”, the binding signal (RPM ratio (pull-down/input)) was determined as 3.23.
In the case of “GATGATTGTTCTCCCAGCTGATGAATTTAACGTGTCGAGTAAACAAATTTTCCTAATCTTTCTGTTCAAGCGCCATCTAC”, the binding signal (RPM ratio (pull-down/input)) came out at 0.922.
Take “GATGATTGTTCTCCCAGCTGATGAATTGTTGCGTTCGAGTAAACAAATTTTCCTAATCTTTCTGTTCAAGCGCCATCTAC”: the binding signal (RPM ratio (pull-down/input)) is 3.78.
Take “GATGATTGTTCTCCCAGCTGATGAATTCATGCAATCGAGTAAACAAATTTTCCTAATCTTTCTGTTCAAGCGCCATCTAC”: the binding signal (RPM ratio (pull-down/input)) stood at 2.7.
Consider “GATGATTGTTCTCCCAGCTGATGAATTCGGGTGCTCGAGTAAACAAATTTTCCTAATCTTTCTGTTCAAGCGCCATCTAC”, for which the binding signal (RPM ratio (pull-down/input)) worked out at 0.494.
Turning to “GATGATTGTTCTCCCAGCTGATGAATTCAGCGGCTCGAGTAAACAAATTTTCCTAATCTTTCTGTTCAAGCGCCATCTAC”, the binding signal (RPM ratio (pull-down/input)) amounted to 0.525.
As to “GATGATTGTTCTCCCAGCTGATGAATTAATCGCTTCGAGTAAACAAATTTTCCTAATCTTTCTGTTCAAGCGCCATCTAC”, the binding signal (RPM ratio (pull-down/input)) came to 0.534.
For “GATGATTGTTCTCCCAGCTGATGAATTCTAAACCTCGAGTAAACAAATTTTCCTAATCTTTCTGTTCAAGCGCCATCTAC” the value was 0.345.
For “GATGATTGTTCTCCCAGCTGATGAATTGCCTGTGTCGAGTAAACAAATTTTCCTAATCTTTCTGTTCAAGCGCCATCTAC” the value was 0.881.
For “GATGATTGTTCTCCCAGCTGATGAATTAGCTCAGTCGAGTAAACAAATTTTCCTAATCTTTCTGTTCAAGCGCCATCTAC”, the binding signal (RPM ratio (pull-down/input)) was 0.226.
With “GATGATTGTTCTCCCAGCTGATGAATTTAAACATTCGAGTAAACAAATTTTCCTAATCTTTCTGTTCAAGCGCCATCTAC” the figure was 0.704; with “GATGATTGTTCTCCCAGCTGATGAATTATGGGCGTCGAGTAAACAAATTTTCCTAATCTTTCTGTTCAAGCGCCATCTAC”, 0.683; with “GATGATTGTTCTCCCAGCTGATGAATTAACATGCTCGAGTAAACAAATTTTCCTAATCTTTCTGTTCAAGCGCCATCTAC”, 0.621.
For “GATGATTGTTCTCCCAGCTGATGAATTCTAGGCGTCGAGTAAACAAATTTTCCTAATCTTTCTGTTCAAGCGCCATCTAC” the value was 0.457.
With “GATGATTGTTCTCCCAGCTGATGAATTGGTAGGATCGAGTAAACAAATTTTCCTAATCTTTCTGTTCAAGCGCCATCTAC”, the binding signal (RPM ratio (pull-down/input)) came out at 0.367.
For “GATGATTGTTCTCCCAGCTGATGAATTGATGATCTCGAGTAAACAAATTTTCCTAATCTTTCTGTTCAAGCGCCATCTAC” the value was 0.741; for “GATGATTGTTCTCCCAGCTGATGAATTACGTATATCGAGTAAACAAATTTTCCTAATCTTTCTGTTCAAGCGCCATCTAC”, 1.63.
As to “GATGATTGTTCTCCCAGCTGATGAATTGGCTTTTTCGAGTAAACAAATTTTCCTAATCTTTCTGTTCAAGCGCCATCTAC”, the binding signal (RPM ratio (pull-down/input)) was determined as 1.5.
“GATGATTGTTCTCCCAGCTGATGAATTGGACCGTTCGAGTAAACAAATTTTCCTAATCTTTCTGTTCAAGCGCCATCTAC”: the binding signal (RPM ratio (pull-down/input)) worked out at 0.275.
With “GATGATTGTTCTCCCAGCTGATGAATTTTCGGGGTCGAGTAAACAAATTTTCCTAATCTTTCTGTTCAAGCGCCATCTAC” the figure was 0.222; with “GATGATTGTTCTCCCAGCTGATGAATTTTCAAACTCGAGTAAACAAATTTTCCTAATCTTTCTGTTCAAGCGCCATCTAC”, 0.289.
For the sequence “GATGATTGTTCTCCCAGCTGATGAATTGAAGACATCGAGTAAACAAATTTTCCTAATCTTTCTGTTCAAGCGCCATCTAC”, the binding signal (RPM ratio (pull-down/input)) was 0.353.
Regarding “GATGATTGTTCTCCCAGCTGATGAATTCCAGGAGTCGAGTAAACAAATTTTCCTAATCTTTCTGTTCAAGCGCCATCTAC”, the binding signal (RPM ratio (pull-down/input)) stood at 0.175.
